Test results: PMC6515139, “Oligomeric Architecture of Mouse Activating Nkrp1 Receptors on Living Cells” (International Journal of Molecular Sciences, 2019)
No constants are given. Whether binding was seen depends on the method and setting. For some of these results: In cells and extracts the contact can be indirect. Some entries that bind do so weakly or less than the wild type. For some of these results: Sequences can lack the tags named with a protein.

By UniProt entry, the sequences of proteins in these tests, tags left out. Residues count along the entry.
UniProt P01731, residues 28-247: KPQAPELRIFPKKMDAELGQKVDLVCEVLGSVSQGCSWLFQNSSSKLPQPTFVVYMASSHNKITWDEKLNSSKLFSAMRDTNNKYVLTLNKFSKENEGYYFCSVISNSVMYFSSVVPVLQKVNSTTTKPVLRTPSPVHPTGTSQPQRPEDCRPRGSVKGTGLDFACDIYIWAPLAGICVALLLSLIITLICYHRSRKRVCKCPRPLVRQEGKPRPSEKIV

Tests used:
CD8α-EGFP = CD8α-EGFP (UniProt P01731); experiment: FRET or BRET; homo-FRET (steady-state fluorescence anisotropy of EGFP, time-domain, TCSPC) at the plasma membrane of living transfected Jurkat cells on PLL-coated slides, 37 °C; semi-quantitative, calibrated by monomeric LAT and dimeric CD8α
[1] = biological target: EGFP-Nkrp1c1 (mouse (C57BL/6)) (UniProt P27814); experiment: reducing SDS-PAGE with anti-GFP immunoblotting; lysates of transfected COS-7 cells as in a2, reducing conditions (100 mM DTT)
[2] = biological target: EGFP-Nkrp1c1 (mouse (C57BL/6)) (UniProt P27814); experiment: non-reducing SDS-PAGE with anti-GFP immunoblotting; lysates of transfected COS-7 cells (1% n-decyl-β-D-maltopyranoside, 40 mM iodoacetamide, on ice), 10% gel, non-reducing conditions
[3] = biological target: EGFP-Nkrp1c1 (mouse (C57BL/6)) (UniProt P27814); experiment: FRET or BRET; homo-FRET (steady-state fluorescence anisotropy of EGFP, time-domain, TCSPC) at the plasma membrane of living transfected Jurkat cells on PLL-coated slides, 37 °C; semi-quantitative, calibrated by monomeric LAT and dimeric CD8α
[4] = biological target: EGFP-Nkrp1f (mouse (C57BL/6)) (UniProt Q8VD98); experiment: reducing SDS-PAGE with anti-GFP immunoblotting; lysates of transfected COS-7 cells as in a2, reducing conditions (100 mM DTT)
[5] = biological target: EGFP-Nkrp1f (mouse (C57BL/6)) (UniProt Q8VD98); experiment: non-reducing SDS-PAGE with anti-GFP immunoblotting; lysates of transfected COS-7 cells (1% n-decyl-β-D-maltopyranoside, 40 mM iodoacetamide, on ice), 10% gel, non-reducing conditions
[6] = biological target: EGFP-Nkrp1f (mouse (C57BL/6)) (UniProt Q8VD98); experiment: FRET or BRET; homo-FRET (steady-state fluorescence anisotropy of EGFP, time-domain, TCSPC) at the plasma membrane of living transfected Jurkat cells on PLL-coated slides, 37 °C; semi-quantitative, calibrated by monomeric LAT and dimeric CD8α
[7] = biological target: EGFP-Nkrp1f_C74S (mouse (C57BL/6)) (UniProt Q8VD98); experiment: reducing SDS-PAGE with anti-GFP immunoblotting; lysates of transfected COS-7 cells as in a2, reducing conditions (100 mM DTT)
[8] = biological target: EGFP-Nkrp1f_C74S (mouse (C57BL/6)) (UniProt Q8VD98); experiment: non-reducing SDS-PAGE with anti-GFP immunoblotting; lysates of transfected COS-7 cells (1% n-decyl-β-D-maltopyranoside, 40 mM iodoacetamide, on ice), 10% gel, non-reducing conditions
[9] = biological target: EGFP-Nkrp1f_C74S (mouse (C57BL/6)) (UniProt Q8VD98); experiment: FRET or BRET; homo-FRET (steady-state fluorescence anisotropy of EGFP, time-domain, TCSPC) at the plasma membrane of living transfected Jurkat cells on PLL-coated slides, 37 °C; semi-quantitative, calibrated by monomeric LAT and dimeric CD8α
[10] = biological target: EGFP-Nkrp1c1_C74,75S (mouse (C57BL/6)) (UniProt P27814); experiment: reducing SDS-PAGE with anti-GFP immunoblotting; lysates of transfected COS-7 cells as in a2, reducing conditions (100 mM DTT)
[11] = biological target: EGFP-Nkrp1c1_C74,75S (mouse (C57BL/6)) (UniProt P27814); experiment: non-reducing SDS-PAGE with anti-GFP immunoblotting; lysates of transfected COS-7 cells (1% n-decyl-β-D-maltopyranoside, 40 mM iodoacetamide, on ice), 10% gel, non-reducing conditions
LAT-EGFP, O43561 = biological target: T1, LAT-EGFP, O43561; experiment: FRET or BRET; homo-FRET (steady-state fluorescence anisotropy of EGFP, time-domain, TCSPC) at the plasma membrane of living transfected Jurkat cells on PLL-coated slides, 37 °C; semi-quantitative, calibrated by monomeric LAT and dimeric CD8α; settings: remark: other sources report otherwise
T1 chain: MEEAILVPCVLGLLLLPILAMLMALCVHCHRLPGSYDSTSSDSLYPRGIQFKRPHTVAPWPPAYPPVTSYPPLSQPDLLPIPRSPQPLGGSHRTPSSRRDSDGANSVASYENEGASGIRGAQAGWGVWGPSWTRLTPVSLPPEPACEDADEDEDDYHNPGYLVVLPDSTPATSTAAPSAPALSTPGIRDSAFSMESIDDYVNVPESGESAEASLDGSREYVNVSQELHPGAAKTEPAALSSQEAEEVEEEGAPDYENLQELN

CD8α-EGFP (from UniProt P01731 28-247) (receptor)
binding (CD8α-EGFP): binds

B1: EGFP-Nkrp1c1 (receptor, mouse (C57BL/6), UniProt P27814 1-223, looked up)
chain: MDTASIYLGLKPPRTLGAWHESPPSLPPDACRCPRSHRLALKLSCAGLILLVLTLIGMSVLVRVLVQKPSREKCCVFIQENLNKTTDCSVNLECPQDWLLHRDKCFHVSQVSNTWEEGQADCGRKGATLLLIQDQEELRFLLDSIKEKYNSFWIGLRFTLPDMNWKWINGTTFNSDVLKITGVTENGSCASILGDKVTPESCASDNRWICQKELNHETPSNDS
notes: last residue S223; Vector pXJ41; also called c1 isoform; source: Jurkat, transiently transfected, living cells; COS-7, transiently transfected, in lysate; not shown: EGFP (with spacer GSGGGS), N-terminal, kept
binding [1]: no binding (condition: reducing conditions (100 mM DTT)) | binding [2]: binds | binding [3]: binds

B2: EGFP-Nkrp1f (receptor, mouse (C57BL/6), UniProt Q8VD98 1-217, looked up)
chain: MDTSKVHGNVKPFRCPGYKQASSPSFSPDACRCPHWHHLALKSGCAGLILLLLSLIGLSVLVRFLVQKPPIEKCSVAAQENRTELTGRSAILECPRYWHPHWNKCLFVSQISRPWAEGRDACSMEDAILLLIENKEELRFVQNLIKGKEQLFFIGLKYVQKEKIWKWIDGSILNPNLLRITGKDKENSCAIISHTEVFSDSCSSDNHWICQKTLIHV
notes: last residue V217; Vector pXJ41; also called f isoform; source: Jurkat, transiently transfected, living cells; COS-7, transiently transfected, in lysate; not shown: EGFP (with spacer GSGGGS), N-terminal, kept
binding [4]: no binding (condition: reducing conditions (100 mM DTT)) | binding [5]: binds | binding [6]: binds

B3: EGFP-Nkrp1f_C74S (receptor, mouse (C57BL/6), UniProt Q8VD98 1-217, looked up)
chain: MDTSKVHGNVKPFRCPGYKQASSPSFSPDACRCPHWHHLALKSGCAGLILLLLSLIGLSVLVRFLVQKPPIEKSSVAAQENRTELTGRSAILECPRYWHPHWNKCLFVSQISRPWAEGRDACSMEDAILLLIENKEELRFVQNLIKGKEQLFFIGLKYVQKEKIWKWIDGSILNPNLLRITGKDKENSCAIISHTEVFSDSCSSDNHWICQKTLIHV
notes: Two extra C-terminal residues (Thr-Gly) possible as for m8 (surmise from the primer); also called C74S mutant of Nkrp1f; source: Jurkat, transiently transfected, living cells; COS-7, transiently transfected, in lysate; not shown: EGFP (with spacer GSGGGS), N-terminal, kept
binding [7]: no binding (condition: reducing conditions (100 mM DTT)) | binding [8]: binds | binding [9]: binds weakly

B4: EGFP-Nkrp1c1_C74,75S (receptor, UniProt P27814 1-223)
chain: MDTASIYLGLKPPRTLGAWHESPPSLPPDACRCPRSHRLALKLSCAGLILLVLTLIGMSVLVRVLVQKPSREKSSVFIQENLNKTTDCSVNLECPQDWLLHRDKCFHVSQVSNTWEEGQADCGRKGATLLLIQDQEELRFLLDSIKEKYNSFWIGLRFTLPDMNWKWINGTTFNSDVLKITGVTENGSCASILGDKVTPESCASDNRWICQKELNHETPSNDS
binding [10]: no binding (condition: reducing conditions (100 mM DTT)) | binding [11]: binds

B5: LAT-EGFP, O43561 1-262 (protein)
chain: MEEAILVPCVLGLLLLPILAMLMALCVHCHRLPGSYDSTSSDSLYPRGIQFKRPHTVAPWPPAYPPVTSYPPLSQPDLLPIPRSPQPLGGSHRTPSSRRDSDGANSVASYENEGASGIRGAQAGWGVWGPSWTRLTPVSLPPEPACEDADEDEDDYHNPGYLVVLPDSTPATSTAAPSAPALSTPGIRDSAFSMESIDDYVNVPESGESAEASLDGSREYVNVSQELHPGAAKTEPAALSSQEAEEVEEEGAPDYENLQELN
binding (LAT-EGFP, O43561): no binding
